# Measured values: PubChem BioAssay AID1240 (Sanford-Burnham Center for Chemical Genomics, 2008)
# Screen size: about 50,000 compounds; about 800 (1.6%) showed an effect of 50% or more. The list shows a part of the results.
# Target: Bcl-2-like protein 10 (Homo sapiens) (UniProt Q9HD36)
# Assay: Phenotype converters, Bcl-B/TR3 peptide binding displacement, primary biochemical FP (AID 1240);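 also: 0% = Bcl-B with tracer peptide and DMSO and 100% = tracer peptide lacking Bcl-B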
# Conditions: GST-Bcl-B / FITC-TR3 peptide fluorescence polarization; stronger effect = higher value; compound at 3.75 mg/L
# Sequence of UniProt Q9HD36 (Q9HD36 whole entry, looked up): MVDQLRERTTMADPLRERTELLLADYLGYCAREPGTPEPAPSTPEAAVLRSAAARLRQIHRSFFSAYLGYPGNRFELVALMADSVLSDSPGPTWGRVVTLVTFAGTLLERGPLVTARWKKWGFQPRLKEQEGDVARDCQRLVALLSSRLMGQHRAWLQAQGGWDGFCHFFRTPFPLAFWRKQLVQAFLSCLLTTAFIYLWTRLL
row,Structure (SMILES),displacement [%]
1,C=CCn1c(SCC(=O)N2CCCCC2)nc2sc3c(c2c1=O)CCC3,2.5
2,COC(=O)c1c(NC(=O)c2cccc([N+](=O)[O-])c2)sc2c1C(C(=O)OC)CC2 (stereo not given),0.7
3,CS(=O)(=O)N1CCN(Cc2cccc(F)c2)CC1,0
4,CCC(=O)Nc1ccc(NC(=O)c2ccc(OC)c(Br)c2)cc1,0.9
5,COC(=O)C1=C(C)NC2=C(C(=O)CCC2)C1c1ccc(OC(C)=O)cc1 (stereo not given),8.4
6,COC(=O)c1c(C)oc2ccc(OC(=O)N3CCOCC3)cc12,9.4
7,CCc1ccc(/C=C2/SC(=S)N(CC(=O)Nc3nc4ccccc4s3)C2=O)cc1,-11.8
8,O=C(/C=C/c1ccccc1)c1ccc([N+](=O)[O-])o1,1.6
9,CC(Oc1ccccc1)C(=O)NCc1ccccn1 (stereo not given),6.8
10,O=[N+]([O-])c1ccc(C2Nc3c(cccc3[N+](=O)[O-])C3C=CCC32)cc1 (stereo not given),7.1
11,O=C(N/N=C/c1ccco1)C1CC(=O)N(c2ccccc2)C1 (stereo not given),-12.2
12,COC(=O)c1ccc(NC(=O)C(C)Oc2ccc(Cl)cc2C)cc1 (stereo not given),-2.3
13,O=C1Nc2ccc(S(=O)(=O)Nc3ccc(O)c(-c4c(O)ccc5ccccc45)c3)c3cccc1c23,2
14,Cc1cc(C)n(-c2ccc(N3CCOCC3)nn2)n1,-4.5
15,CC1(C(=O)O)CC(=O)N=C2C=CC=CN21 (stereo not given),4.9
16,COc1ccc(C2CC(=O)C3=C(C2)Nc2ccccc2NC3c2cccc(Cl)c2)cc1 (stereo not given),2.3
17,COc1ccc(N(CC(=O)N/N=C/c2ccco2)S(=O)(=O)c2ccccc2)cc1,20.8
18,O=C(CNC(=O)c1ccc(Cl)cc1Cl)c1ccccc1,-7.4
19,CC1(C)Oc2c(C(C)(C)C)cc([N+](=O)[O-])c(C(C)(C)C)c2O1,1
20,COc1ccc(N(C(C)C(=O)O)S(C)(=O)=O)cc1 (stereo not given),-3.1
21,O=C(O)c1cccc(NC(=O)c2ccccc2F)c1,-2.3
22,COc1ccccc1C(=O)N1CCN(Cc2cc(OC)c(OC)c(OC)c2)CC1,-5.8
23,O=C(COc1ccc(Br)cc1)Nc1cccc(C(F)(F)F)c1,3.7
24,N#CCN(CC#N)C(=O)CCCOc1ccc(Cl)cc1Cl,-8.4

row,Structure (SMILES),displacement [%]
1,O=C(Nc1nccs1)c1cc(-c2cccc(Br)c2)nc2ccccc12,2.1
2,Cc1ccc(S(=O)(=O)NCc2ccccn2)cc1[N+](=O)[O-],-8.4
3,O=C1NN(c2ccccc2)C(=O)/C1=C/c1cccc(O)c1,-1.7
4,Cc1ccc(OCC(=O)N2CCN(c3ccc([N+](=O)[O-])cc3)CC2)cc1,11.9
5,COCC(COCCCN=C1NS(=O)(=O)c2ccccc21)OC (stereo not given),6.1
6,COc1ccc(NC(=O)c2cc3n(n2)C(C(F)(F)F)CC(c2ccc(F)cc2)N3)cc1OC (stereo not given),5.3
7,Cc1cc(SCc2ccccc2)n2ncnc2n1,-0.1
8,COc1ccc(/C(O)=C2/C(=O)C(=O)N(CCCCCC(=O)O)C2c2ccc([N+](=O)[O-])cc2)cc1 (stereo not given),-12
9,CC(C)(C)c1ccc(C(=O)Nc2ccc(NC(=O)c3ccc4c(c3)OCCO4)cc2)cc1,1.6
10,CN1CCN(c2ccc(C(=O)c3cccc(F)c3)cc2)CC1,-2.6
11,O=S(=O)(NCc1ccccc1Cl)c1ccc2ccccc2c1,-6.7
12,Cc1cc(C)c2oc(-c3ccc(NC(=O)c4cccnc4)cc3O)nc2c1,7.2
13,COc1ccc(-c2cc(=O)n3[nH]c(-c4cccc(F)c4)cc3n2)cc1,8.5
14,FC(F)(F)c1ccc(CN2CCN(Cc3ccco3)CC2)cc1,-36.1
15,CN(C)c1ccc(NC(=O)c2ccccc2Cl)cc1,6.5
16,O=S(=O)(c1ccc(-c2ccccc2)cc1)N1CCSC1c1ccccc1 (stereo not given),4.8
17,CSc1ccc(/C=C(/C#N)C(=O)Nc2cccc(Br)c2)cc1,80.3
18,Cc1ccc(C2=C/C(=C/c3cc4c(cc3Br)OCO4)C(=O)O2)cc1,-1.3
19,CCOC(=O)N1CCN(S(=O)(=O)c2ccc(C)cc2)C1,10.6
20,O=C(/C=C/c1ccc([N+](=O)[O-])cc1)NCCSc1ccccn1,-5
21,CCc1cc(=O)oc2cc(OCc3ccc(C)cc3)ccc12,0
22,CS(=O)(=O)N(CC(=O)Nc1ccccc1Cl)c1cc(Cl)cc(Cl)c1,-7.7
23,CCN1C(=O)/C(=C\c2ccc(OCCOc3cccc(OC)c3)cc2)SC1=S,10.9
24,O=S(=O)(CCc1nc2ccccc2[nH]1)c1ccc(Cl)cc1,-3.8

row,Structure (SMILES),displacement [%]
1,CCCOc1ccc(-c2cc(C(=O)NCCCN3CCOCC3)c3ccccc3n2)cc1,1
2,O=C(Cc1ccccc1)Nc1ccc2c(c1)OCCO2,15.3
3,CCOC(=O)C1=C(O)CSC1=Nc1ccc(OC)cc1,-13
4,COc1ccc(CC(=O)Nc2ccc(Br)cc2F)cc1OC,-1.7
5,COc1ccc(/C(C)=N\OCc2nc3c4c5c(sc4ncn3n2)C(C)(C)NC(C)(C)C5)cc1OC,-9.8
6,Cc1ccc(C(O)c2nc3ccccc3n2C(C)C)cc1 (stereo not given),-9.1
7,COc1ccc(NC(=O)C(C)c2ccc(CC(C)C)cc2)cc1 (stereo not given),14.9
8,COC(=O)c1ccccc1NC(=O)c1cc(=O)[nH]c2ccccc12,8.9
9,COc1ccccc1OCc1ccc(C(=O)O)cc1,-5.2
10,C/C(=N/NC(=O)c1cccc(Br)c1)c1ccccc1O,-7.3
11,O=C(Oc1cc(-c2ccccc2)c2oc(=O)sc2c1)c1ccccc1,1.6
12,CCOC(=O)c1c(NC(=O)CCCOc2ccc(Cl)cc2Cl)sc(C)c1C,8.1
13,O=C(Oc1ccc(-c2ccccc2)cc1)c1ccccc1[N+](=O)[O-],3
14,C/C(=N\N=C1\NC(=O)C(CC(=O)Nc2cccc(C)c2C)S1)c1ccccc1 (stereo not given),8.6
15,O=C(Nc1ccccc1C(=O)Nc1ccccc1I)c1ccccc1,11.1
16,CCOc1ccc(NC(=S)NC(NC(=O)c2ccc(Br)cc2)C(Cl)(Cl)Cl)cc1 (stereo not given),-5.8
17,CCOC(=O)C1=C(O)/C(=C/c2cccs2)SC1=Nc1cccc(Cl)c1,-3.3
18,Cc1nc(NNC(=O)c2ccc(Cl)cc2)cc(-c2ccccc2)n1,-7.4
19,CN(c1ccc(C(=O)Nc2cccnc2)cc1)S(=O)(=O)c1ccccc1,3.9
20,O=C(Nc1cccc2nsnc12)c1ccc(Cl)cc1Cl,0.8
21,O=C(NC1CCSC1=O)c1ccc(-c2ccccc2)cc1 (stereo not given),-7
22,Cc1cccc(N2C(=O)NC(=O)/C(=C/c3cccn3-c3ccc([N+](=O)[O-])cc3)C2=O)c1,-12.8
